# “And” between values parts separate entries of the source, which are not always exact repeats. Equal values may be shown once. Screen size: about 420,000 compounds; about 50,000 (12%) were called active. Inconclusive results, whose numbers are uncertain, are shown with a selection of clear calls. The call rests on the fitted dose curve; in most records, active means well fitted inhibition curve with a large enough effect; inconclusive means small, poorly fitted or top-dose-only effect; inactive means flat fitted curve, though single readings scatter. Where the call is inconclusive, the potency comes from a doubtful curve fit.
# Assay: qHTS for Inhibitors of human tyrosyl-DNA phosphodiesterase 1 (TDP1): qHTS in cells in presence of CPT; further: nearly all actives have a fitted effect of over 55% in size
# Settings: chicken DT40 Tdp1-/-;hTDP1 cells + 20 nM CPT, ATP luminescence, 48 h; activity change, negative = growth inhibition: at 46.2 µM (top of the series) unless noted
# Method in brief: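 Cell growth measured by CellTiter-Glo luminescence after a minimum 48 h, 37 C compound exposure with 20 nM CPT in Tdp1-knockout DT40 cells stably expressing hTDP1, seeded 400/well; qHTS titration format.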
# On the % scale 0 is the no-effect control and ±100 the full control effect; potency means the concentration at half of the fitted maximal effect; tags describe the fitted curve by direction and shape.
SMILES,Potency,"activity change, negative = growth inhibition"
COc1cc(Nc2c(C#N)cnc3cc(OCCCN4CCN(C)CC4)c(OC)cc23)c(Cl)cc1Cl,"inconclusive: 2.66 µM [inhibitor, full curve, poor fit]",–
Cc1ccc(S(=O)(=O)N2CCN(Cc3csc(C)n3)CC2)cc1,inactive,–
O=C(OCC1OC(n2cnc3c(N(C(=O)c4ccccc4)C(=O)c4ccccc4)ncnc32)C(O)C1F)c1ccccc1 (centres undefined),"inconclusive: 23.1 µM [inhibitor, single point]",–
CCOC(=O)C1=C(CN2CCN(C(=O)c3ccco3)CC2)NC(=O)NC1c1ccc(Cl)cc1 (centres undefined),"inconclusive: 20.6 µM [inhibitor, partial curve, poor fit]",–
O=C(CSc1nnc(NC2CCCCC2)s1)Nc1ccc2c(c1)C(=O)c1ccccc1C2=O,"inconclusive: 20.6 µM [inhibitor, single point]",–
O=C(c1ccc(Oc2ccccc2)cc1)c1nc2c(n1O)CCCC2,inactive,–
O=C(O)/C=C/c1cn(Cc2ccccc2)nc1-c1ccccc1,inactive,–
CC(Sc1ccc(Cl)cc1)C(=O)NCC(c1ccco1)N1CCCCC1 (centres undefined),"inconclusive: 29.1 µM [inhibitor, single point]",–
CC1Cc2cc(S(=O)(=O)NCCc3ccccc3)ccc2N1C(=O)C1CC1 (centres undefined),active: 14.6 µM,–
Clc1ccc(Cl)c(-c2nn3c(Cn4cnc5ccccc54)nnc3s2)c1,"inconclusive: 20.6 µM [inhibitor, single point]",–
CC(Cc1ccccc1)NC(=O)CCNNC(=O)c1ccncc1 (centres undefined),inactive,–
Cc1cc(C(=O)OCC(=O)NCc2ccccc2Cl)c(C)o1,inactive,–
CCOc1cc(NC(=O)CCl)c(OCC)cc1NC(C)=O,"inconclusive: 29.1 µM [inhibitor, single point]",–
Cc1cccc2cc(CN(CC(C)C)S(=O)(=O)c3ccccc3)c(=O)[nH]c12,"inconclusive: 29.1 µM [inhibitor, single point]",–
COc1cccc(OCCN2CCN(c3ncnc4c3cnn4-c3ccccc3)CC2)c1,"inconclusive: 16.4 µM [inhibitor, single point]",–
O=C(O)CC(c1ccccc1)c1ccccc1,inactive,–
CCCOc1cccc(C(=O)NCCNC(=O)c2ccco2)c1,inactive,–
O=C(NC1CCCCC1)C(c1ccco1)N(C(=O)c1csnn1)C1CCCC1 (centres undefined),"inconclusive: 25.9 µM [inhibitor, single point]",–
CC(CC(=O)Nc1nnc(CC(C)(C)C)s1)c1ccccc1 (centres undefined),"inconclusive: 18.4 µM [inhibitor, single point]",–
Cc1ccc(-n2c(SCC(=O)c3c(N)n(C)c(=O)n(C)c3=O)nc3sc4c(c3c2=O)CCCC4)c(C)c1,"inconclusive: 10.3 µM [inhibitor, partial curve]",–
Cc1[nH]n(C(N)=S)c(=O)c1N=Nc1ccc(Br)cc1,active: 23.1 µM,–
Cc1cc(C)c(S(=O)(=O)NCC2CCC(C(=O)NCCCN3CCOCC3)CC2)c(C)c1 (centres undefined),"inconclusive: 29.1 µM [inhibitor, single point]",–
Cc1ccc(-c2cnc(C(O)c3cccc(C)c3C)[nH]2)cc1 (centres undefined),inactive,–

SMILES,Potency,"activity change, negative = growth inhibition"
CCCCCCSc1ccc(-c2nc3ccc(Cl)cn3c2NCc2ccccc2)cc1,"inconclusive: 25.9 µM [inhibitor, single point]",–
Cc1ccc(NC(=O)C(=O)NCCOc2ccc(Cl)cc2)c(C)c1,inactive,–
COc1cc(-c2ccc3oc(-c4cccc(C)c4)c(C#CC4(O)CCCCC4)c3c2)cc(OC)c1OC,active: 16.4 µM,–
COc1ccc(C(CNC(=O)COc2c(C)cc(C)cc2C)N2CCOCC2)cc1 (centres undefined),"inconclusive: 20.6 µM [inhibitor, single point]",–
CCC(C)c1nc2ccsc2c(N2CCOC2=O)c1-c1ccccc1 (centres undefined),"inconclusive: 20.6 µM [inhibitor, partial curve]",–
CC(=O)Oc1ccc(-c2cccc(C(=O)OCC(=O)Nc3ccccc3Oc3ccccc3)c2)cc1,inactive,–
CCC(C)(C)NC(=O)C(c1ccco1)N(C(=O)c1csnn1)c1cccc(F)c1 (centres undefined),"inconclusive: 6.51 µM [inhibitor, partial curve, poor fit]",–
CCN(CC)S(=O)(=O)c1ccc2c(c1)N(CC(=O)Nc1ccc(F)cc1)C(=O)CO2,inactive,–
O=c1oc2cc(O)ccc2cc1S(=O)(=O)c1ccccc1,inactive,–
Cc1cccc(C)c1NC(=O)NS(=O)(=O)c1ccccc1,inactive,–
CCCCc1oc2ccc(NS(C)(=O)=O)cc2c1C(=O)c1ccc(OCCCN(CCCC)CCCC)cc1,active: 4.73 µM,–
CCOc1ccccc1CNC(=O)CCCc1cn(C)c2ccccc12,–,inconclusive: -36.5% [inhibitor]
COc1ccc(CCNC(=O)CCCCCn2c(SCC(N)=O)nc3cc4c(cc3c2=O)OCO4)cc1OC,"inactive and inconclusive: 29.1 µM [inhibitor, single point]",–
CCNC(=O)CN1C(=O)NC(Cc2ccccc2)(Cc2ccccc2)C1=O,inactive,–
Cc1ccc(C(O)c2ncc(-c3ccc(C(F)(F)F)cc3)[nH]2)cc1F (centres undefined),"inconclusive: 29.1 µM [inhibitor, single point]",–
N/C(=N\OC(=O)c1ccc(Cl)cc1[N+](=O)[O-])c1cccnc1,"inconclusive: 16.4 µM [inhibitor, partial curve]",–
O=C(O)CC1=C(Nc2ccccc2)C(=O)N(c2ccccc2)C1c1ccc(Cl)cc1 (centres undefined),"inconclusive: 20.6 µM [inhibitor, single point]",–
CSCc1ccc(C(=O)NCCSc2ccc(Br)cc2)cc1,"inconclusive: 29.1 µM [inhibitor, single point]",–
Fc1cc(NC(=S)NCc2ccc(CNC(=S)Nc3ccc(Cl)c(F)c3)cc2)ccc1Cl,"inconclusive: 23.1 µM [inhibitor, single point]",–
Cc1ccc(N(Cc2ccccc2)C(=O)c2cccc(F)c2)cc1,"inconclusive: 23.1 µM [inhibitor, single point]",–
CCOc1ccc(C2C(C#N)=C(N)SC(N)=C2C#N)cc1OCC,"inconclusive: 20.6 µM [inhibitor, single point]",–
CC(C)C(=O)N1CCC(n2nccc2NC(=O)CCc2ccccc2)CC1,"inconclusive: 25.9 µM [inhibitor, single point]",–
Cc1ccc(F)cc1NS(=O)(=O)c1ccc(Cl)s1,inactive,–

SMILES,Potency,"activity change, negative = growth inhibition"
Cc1cccc(NC(=O)c2ccc3c(c2)C(=O)N(c2ccccc2C)C3=O)n1,inactive,–
Cc1ccc(CNC(=O)Cn2cnc3c(NCc4ccccc4)ncnc32)o1,active: 18.4 µM,–
COc1ccc(Oc2ccc(/C=N/NC(=O)c3cccnc3)cc2[N+](=O)[O-])cc1,"inconclusive: 23.1 µM [inhibitor, partial curve, poor fit]",–
Cc1ccc(C)c(N(C)C(=O)C2CCN(c3ncnc4c3nc3n4CCCCC3)CC2)c1,"inconclusive: 23.1 µM [inhibitor, single point]",–
O=C(NCc1ccc(F)cc1)c1cc(C2CCCCN2C(=O)c2ccccn2)on1 (centres undefined),"inconclusive: 20.6 µM [inhibitor, single point]",–
COc1ccccc1CNC(=O)c1csc(Cc2ccc(Cl)cc2)n1,"inconclusive: 16.4 µM [inhibitor, single point]",–
CC1CCN(C(=S)NC2CCCCC2)CC1,"inconclusive: 18.4 µM [inhibitor, single point]",–
N#CC(Nc1ccccc1)c1ccccc1OCc1ccccc1 (centres undefined),"inconclusive: 18.4 µM [inhibitor, single point]",–
Cc1ccc(-c2nc(N)sc2-c2ccccc2)cc1C,"inconclusive: 29.1 µM [inhibitor, single point]",–
Cc1ccc(CNCc2c(C(=O)O)c(C)n(Cc3ccc(C)cc3)c2C)cc1,"inconclusive: 29.1 µM [inhibitor, single point]",–
Cc1ccc(-n2c(-c3ccccc3)n[nH]c2=S)c(C)c1,"inconclusive: 29.1 µM [inhibitor, single point]",–
Cc1cccc(NC(=S)NC(=O)Cc2ccccc2)c1C,"inconclusive: 4.11 µM [inhibitor, single point]",–
CC(=O)c1cccc(NC(=O)C2CCCN(S(=O)(=O)c3ccccc3)C2)c1 (centres undefined),"inconclusive: 20.6 µM [inhibitor, partial curve]",–
O=C(O)c1cccc(Nc2nc(-c3ccc([N+](=O)[O-])cc3)nc3ccccc23)c1,inactive,–
Cc1cc(C(=O)COC(=O)c2ccc(NC(=O)CC#N)cc2)c(C)n1C1CC1,active: 20.6 µM,–
COc1ccc2c(c1)C=C([C@@H]1C[C@H]3CN(c4ccccc4)C(=O)[C@]34CCCN14)CO2,"inconclusive: 16.4 µM [inhibitor, partial curve, poor fit]",–
Cc1ccc(CNCC(O)(c2ccccc2)c2ccc(F)cc2)cc1 (centres undefined),"inconclusive: 18.4 µM [inhibitor, single point]",–
OC(c1cccc(CN2CCCCC2)c1)c1ncc(-c2ccccc2Cl)[nH]1 (centres undefined),"inconclusive: 29.1 µM [inhibitor, single point]",–
C=CCSc1nnc(NC(=O)c2cn(CC)c3nc(C)ccc3c2=O)s1,inactive,–
COc1cccc(CNC(=O)COc2ccc(C(=O)c3ccccc3)cc2)c1,"inconclusive: 29.1 µM [inhibitor, single point]",–
C=CCN(CC=C)Cc1cc(=O)oc2cc(C)c(C)cc12,"inconclusive: 14.6 µM [inhibitor, single point]",–
CCN=C1S/C(=C\c2cc(Cl)c(OC)c(OC)c2)C(=O)N1CC,"inconclusive: 32.6 µM [inhibitor, single point]",–
Cc1ccc(-c2csc(NCCn3c(-c4ccncc4)nc4ccccc43)n2)cc1,"inconclusive: 18.4 µM [inhibitor, single point]",–

# Source: PubChem BioAssay AID686979 (National Center for Advancing Translational Sciences (NCATS), 2013)
